From publication PMC9855889 come the findings set out here.

Protein sequences, listed by entry. Tags and fused reporters are not part of them.
UniProt P10591: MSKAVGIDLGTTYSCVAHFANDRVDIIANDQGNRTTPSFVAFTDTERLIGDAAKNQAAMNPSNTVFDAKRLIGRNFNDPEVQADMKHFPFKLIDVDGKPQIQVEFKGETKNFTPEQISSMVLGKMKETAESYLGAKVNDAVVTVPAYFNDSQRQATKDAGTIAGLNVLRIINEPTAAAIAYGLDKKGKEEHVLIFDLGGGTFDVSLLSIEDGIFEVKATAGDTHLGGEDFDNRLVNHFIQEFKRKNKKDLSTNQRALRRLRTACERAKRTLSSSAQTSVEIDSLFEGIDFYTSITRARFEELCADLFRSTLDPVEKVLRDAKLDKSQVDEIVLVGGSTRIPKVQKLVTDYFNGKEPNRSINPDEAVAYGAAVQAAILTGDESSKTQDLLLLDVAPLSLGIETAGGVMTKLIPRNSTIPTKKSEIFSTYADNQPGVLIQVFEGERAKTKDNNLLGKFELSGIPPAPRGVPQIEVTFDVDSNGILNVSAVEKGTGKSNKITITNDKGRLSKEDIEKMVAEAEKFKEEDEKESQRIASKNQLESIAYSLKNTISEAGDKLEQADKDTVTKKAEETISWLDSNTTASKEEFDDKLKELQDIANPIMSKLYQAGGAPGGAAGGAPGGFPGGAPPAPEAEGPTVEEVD

Assay [1] concerns the target T1, α1-HA (Scl1-HA) (S. cerevisiae) (UniProt P21243).
T1 sequence: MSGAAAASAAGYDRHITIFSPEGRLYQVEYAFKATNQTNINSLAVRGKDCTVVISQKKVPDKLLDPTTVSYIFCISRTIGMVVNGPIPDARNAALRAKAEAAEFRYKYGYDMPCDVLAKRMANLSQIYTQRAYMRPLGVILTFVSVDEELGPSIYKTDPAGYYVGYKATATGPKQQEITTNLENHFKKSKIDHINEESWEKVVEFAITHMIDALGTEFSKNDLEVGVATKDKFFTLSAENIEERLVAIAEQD
The assay is described as follows: native gel or EMSA; crude yeast extracts in 26S buffer (2 mM ATP), 4-15% native PAGE, anti-HA blot of the HA-tagged α subunit; +C bands compared in WT, sse1∆, sse1-G205D and ssa mutant strains; ATP or ADP (1 or 2 mM) added to ATP-free extracts restored the +C bands. Background: A gel shift assay detects complexes by their altered migration in electrophoresis.

The target in assay [2] is T2, α4-HA (Pre6-HA) (S. cerevisiae) (UniProt P40303).
T2 sequence: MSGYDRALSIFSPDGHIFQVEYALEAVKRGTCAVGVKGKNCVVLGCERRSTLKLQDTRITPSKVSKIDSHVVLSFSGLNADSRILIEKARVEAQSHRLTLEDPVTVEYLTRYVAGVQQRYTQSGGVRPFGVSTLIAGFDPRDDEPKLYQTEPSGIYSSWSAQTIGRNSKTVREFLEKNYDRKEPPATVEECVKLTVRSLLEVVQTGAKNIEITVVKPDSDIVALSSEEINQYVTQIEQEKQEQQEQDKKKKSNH
Described as above.

The target in assay [3] is T1, α1-HA (Scl1-HA) (S. cerevisiae). The assay is described as follows: native gel or EMSA; crude yeast extracts prepared with 26S buffer without ATP (0 mM), native PAGE, anti-HA blot.
For assay [4], the target named is T2, α4-HA (Pre6-HA) (S. cerevisiae). Described as above.
Assay [5] addresses T1, α1-HA (Scl1-HA) (S. cerevisiae). The assay is described as follows: native gel or EMSA; crude yeast extracts in 26S buffer (2 mM ATP), 4-15% native PAGE, anti-HA blot of the HA-tagged α subunit; +C bands compared in WT, sse1∆, sse1-G205D and ssa mutant strains; ATP or ADP (1 or 2 mM) added to ATP-free extracts restored the +C bands. The source holds these as a separate data set.

Assay [6] addresses T2, α4-HA (Pre6-HA) (S. cerevisiae). The assay is described as above. The source holds these as a separate data set.
The target in assay [7] is T3, α2-HA (Pre8-HA) (S. cerevisiae) (UniProt P23639).
T3 sequence: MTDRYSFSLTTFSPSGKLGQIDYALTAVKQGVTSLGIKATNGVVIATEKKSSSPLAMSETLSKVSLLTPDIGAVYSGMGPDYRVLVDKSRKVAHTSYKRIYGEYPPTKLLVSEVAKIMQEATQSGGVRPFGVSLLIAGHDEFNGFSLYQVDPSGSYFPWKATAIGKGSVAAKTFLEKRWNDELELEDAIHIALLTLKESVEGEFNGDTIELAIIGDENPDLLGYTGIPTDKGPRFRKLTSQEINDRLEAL
Described as above.

These are yes or no findings as the source states them, for the method shown. Some results given as binding are weak or reduced against the parent protein; the word gives no strength. Tags and fused reporters may be left off the sequences shown.

As for Ssa1 (from UniProt P10591 1-642), the binding entry in assay [1] was “binds”; in assay [2], “binds”; in assay [3], “no binding (condition: extraction buffer without ATP)”; in assay [4], “no binding (condition: extraction buffer without ATP)”.

B1: Sse1 (protein, UniProt P32589 1-693)
chain: MSTPFGLDLGNNNSVLAVARNRGIDIVVNEVSNRSTPSVVGFGPKNRYLGETGKNKQTSNIKNTVANLKRIIGLDYHHPDFEQESKHFTSKLVELDDKKTGAEVRFAGEKHVFSATQLAAMFIDKVKDTVKQDTKANITDVCIAVPPWYTEEQRYNIADAARIAGLNPVRIVNDVTAAGVSYGIFKTDLPEGEEKPRIVAFVDIGHSSYTCSIMAFKKGQLKVLGTACDKHFGGRDFDLAITEHFADEFKTKYKIDIRENPKAYNRILTAAEKLKKVLSANTNAPFSVESVMNDVDVSSQLSREELEELVKPLLERVTEPVTKALAQAKLSAEEVDFVEIIGGTTRIPTLKQSISEAFGKPLSTTLNQDEAIAKGAAFICAIHSPTLRVRPFKFEDIHPYSVSYSWDKQVEDEDHMEVFPAGSSFPSTKLITLNRTGDFSMAASYTDITQLPPNTPEQIANWEITGVQLPEGQDSVPVKLKLRCDPSGLHTIEEAYTIEDIEVEEPIPLPEDAPEDAEQEFKKVTKTVKKDDLTIVAHTFGLDAKKLNELIEKENEMLAQDKLVAETEDRKNTLEEYIYTLRGKLEEEYAPFASDAEKTKLQGMLNKAEEWLYDEGFDSIKAKYIAKYEELASLGNIIRGRYLAKEEEKKQAIRSKQEASQMAAMAEKLAAQRKAEAEKKEEKKDTEGDVDMD
Consider B1, for which the binding result in assay [3] is reported as “no binding (condition: extraction buffer without ATP)”; in assay [4], “no binding (condition: extraction buffer without ATP)”; in assay [5] it was “binds”; in assay [6], “binds”; in assay [7], “binds”.
